Reference: PubChem BioAssay AID1240 (Sanford-Burnham Center for Chemical Genomics, 2008)
“And” between values parts separate entries of the source, which are not always exact repeats. Equal entries are not always repeated. Hit rate of the full screen: of about 50,000 compounds, about 800 (1.6%) showed an effect of 50% or more. Some of the results follow.

Target: Bcl-2-like protein 10 (Homo sapiens) (UniProt Q9HD36)
Test: Phenotype converters, Bcl-B/TR3 peptide binding displacement, primary biochemical FP (AID 1240);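 further: 0% = Bcl-B with tracer peptide and DMSO and 100% = tracer peptide lacking Bcl-B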
Settings: GST-Bcl-B / FITC-TR3 peptide fluorescence polarization; stronger effect = higher value; compound at 3.75 mg/L

Chain of UniProt Q9HD36 (Q9HD36 whole entry, looked up): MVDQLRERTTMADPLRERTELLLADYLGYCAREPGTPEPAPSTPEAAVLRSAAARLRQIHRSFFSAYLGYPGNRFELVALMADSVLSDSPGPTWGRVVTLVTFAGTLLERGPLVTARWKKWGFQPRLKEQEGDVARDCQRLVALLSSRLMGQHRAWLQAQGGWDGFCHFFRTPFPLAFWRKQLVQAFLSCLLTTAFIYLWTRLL

SMILES | displacement
O=C1/C(=C\c2cccs2)CC2CC1C/C(=C/c1cccs1)C2=O | 2.6%
CC(=O)c1ccc(NC(=O)c2ccc(CN3CCc4ccccc4C3)cc2)cc1 | 7%
C/C(=N\NC(=O)c1ccc(C)cc1)c1ccc(Cl)cc1 | 14.8%
O=C(Nc1nc2ccccc2s1)c1ccc(-c2ccccc2)cc1 | 5.2%
CCOc1cccc(C(=O)Nc2ccc(N(CC)CC)cc2)c1 | 9.5%
CC(=O)Nc1ccc(NC(=O)COc2ccc(Cl)cc2C)cc1 | -2.4%
O=C(C[n+]1cccc2ccccc21)c1cc2ccccc2oc1=O | 24%
O=C(Cc1ccccc1)NCC1COc2ccccc2O1 (stereo not given) | 3.2%
O=C(NCc1ccccc1)C1CC(=O)N(c2ccc(Br)cc2)C1 (stereo not given) | -5.1%
COc1ccc(C(=O)N/C(=C/c2cccs2)C(=O)NCCN2CCOCC2)cc1 | 6.3%
COc1ccc(/C(O)=C2\C(=O)C(=O)N(CCc3ccccc3)C2c2ccc(F)cc2)cc1 (stereo not given) | 6.3%
Cc1ccc(C(=O)Nc2ccccc2C(=O)NCCC(=O)O)cc1 | -3.6%
CCCN(c1ccccc1C)S(=O)(=O)c1ccc(Cl)cc1 | 8.6%
Cc1nc(-c2ccccc2)nc(N/N=C/c2ccc(N(C)C)cc2)c1C | -4.5%
Cc1cc(Cl)ccc1OC(C)C(=O)Nc1c(Cl)cccc1Cl (stereo not given) | 11.6%
CCN1CCc2c(sc(NC(=O)Nc3ccc(Cl)c(Cl)c3)c2C(N)=O)C1 | 111%
C=C(C)C1CCC(C)=C1CC(C)(C)/C=N\n1cnnc1 (stereo not given) | 8%
COc1ccc(CC(=O)N=Nc2c(O)n(CN3CCCC3)c3ccccc23)cc1 | -2.3%
COc1ccc(CNC(=O)CSc2nc3ccccc3[nH]2)cc1 | 8.5%
CCC(c1ccccc1)c1nnc(NC(=O)Nc2cccc(Cl)c2)s1 (stereo not given) | -0.8%
COc1ccc(CN2CCN(C(=O)c3ccco3)CC2)cc1OCc1ccccc1 | -9.4%
CC(C)Cc1cc(-c2ccccc2)c(C#N)c(N)n1 | 13.1%

SMILES | displacement
O=C(/C=C/c1ccco1)Nc1ccc(Cl)c(Cl)c1 | -12%
COc1cc(OC)c(NC(=O)c2ccccc2C)cc1Cl | -12%
O=C(/C=C/c1ccc(-c2ccc(Cl)cc2Cl)o1)NCCCN1CCOCC1 | -13.4%
O=C(CSc1ccc(C(F)(F)F)cc1[N+](=O)[O-])Nc1ccccc1 | -8.7%
O=C(Nc1ccccc1)Nc1cccc2cccnc12 | -4.2%
O=C(Cc1ccc(Cl)cc1)Nc1nccs1 | 11.5%
COc1cccc(-c2cc(C(=O)O)c3cc(Br)ccc3n2)c1 | 4.5%
COc1ccc(/C(N)=N/OC(=O)COc2ccc(C)cc2Br)cc1OC | 5.4%
CCOc1ccc(N(CC(=O)NCc2ccncc2)S(=O)(=O)c2ccccc2)cc1 | 3.7%
COc1ccccc1NC(=O)CSc1nnc(NC(=O)CSc2nnc3n(N)cnn23)s1 | -3.9%
COc1ccc([N+](=O)[O-])cc1NC(=O)C1C2CCC(C2=C(C)C)C1C(=O)O (stereo not given) | -8.2%
O=C(NCCOc1ccc(Cl)cc1)c1ccc([N+](=O)[O-])cc1 | -20.2%
COc1cc2c(cc1OC)C(C)N(CC(=O)O)CC2 (stereo not given) | -18.7%
CN1C(=O)NC(=O)/C(=C\c2ccc(N3CCCC3)cc2)C1=O | 15.1%
COc1ccc(S(=O)(=O)Nc2nc3ccccc3s2)cc1[N+](=O)[O-] | -6.5%
Cc1ccnc(NC(=O)/C=C/c2ccc(-c3ccccc3[N+](=O)[O-])o2)c1 | 8.7%
COCCNC(=O)c1cc2nc(-c3ccccc3)cc(-c3ccccc3)n2n1 | 14.1%
COc1ccc(OC)c(CN2CCN(Cc3ccco3)CC2)c1 | -1%
COc1ccccc1OCCNC(=O)c1cc(SC)ccc1Cl | -7.1%
O=C(O)CC(C(=O)O)P(=O)(c1ccccc1)c1ccccc1 (stereo not given) | 12.8%
CCOc1ccc2nc(Cc3ccccc3)[nH]c2c1 | -6.1%
CC1=C(C(=O)OCCc2ccccc2)C(c2ccc(F)cc2)C2=C(CCCC2=O)N1 (stereo not given) | -3.8%

SMILES | displacement
CCc1nnc(NS(=O)(=O)c2ccc(N=Cc3c(C)[nH]n(-c4ccc(C)cc4)c3=O)cc2)s1 | 5.9%
COC(=O)CN1C(=O)C(=C(C#N)C#N)c2ccccc21 | -10.8%
CC(=O)CC(=O)Nc1ccc(OCc2ccccc2)cc1 | -3.1%
O=C(NCCOC(=O)c1cccs1)c1cccnc1 | -7.4%
COc1ccc(CC(=O)O/N=C(\N)c2cccnc2)cc1OC | 8.7%
Brc1ccc2ncnc(NCCc3ccccc3)c2c1 | -5.7%
Nc1nnc(SCC(=O)c2ccc([N+](=O)[O-])cc2)s1 | 2.8%
Cc1cc(C)c2oc(-c3ccc(NC(=O)c4cccc([N+](=O)[O-])c4C)cc3)nc2c1 | -3.8%
Cc1cccc2c(=O)oc(-c3ccccc3Cl)nc12 | 4.4%
Cc1cccc(/C=C2\C(=O)NC(=O)N(c3ccc(Cl)cc3)C2=O)c1 | -32.6%
CC(C)(C)C1=CC2(C=C(C(C)(C)C)C1=O)Nc1cccc3cccc(c13)N2 | -2%
COc1cc(C=C2C(=O)NC(=S)NC2=O)ccc1OC(C)C | 17%
COc1ccc(C(N)=O)cc1NC(=O)c1cc(C(F)(F)F)cc(C(F)(F)F)c1 | -4.5%
COc1cccc(C(=O)Nc2cc([N+](=O)[O-])ccc2O)c1 | 23.2%
CCCCCC12CCC(O)(CC1)C/C2=N/NS(=O)(=O)c1ccc(C)cc1 | 13.2%
O=[N+]([O-])c1ccc(C2NN=C(Cc3ccccc3)S2)cc1 (stereo not given) | -6.7%
O=C1/C(=C/c2ccc(Cl)cc2)SC(=S)N1C1CCCCC1 | -7%
O=C1C=C(NCCc2c[nH]c3ccccc23)CC(c2ccccc2)C1 (stereo not given) | -2.8%
CCOC(=O)C(C#N)C(c1ccc(C)cc1)C1CCOC(C)(CC)C1 (stereo not given) | -10.4%
COc1ccc(/C=N/N(C)c2cc(C)nc(-c3ccccc3O)n2)cc1OC | 0.3%
Cc1[nH]n(-c2ccccc2)c(=O)c1C(=O)c1ccc([N+](=O)[O-])cc1 | -12.3%
CCN1C(=O)/C(=C2/Oc3ccc4ccccc4c3N2C)OC1=S | 10.8%

SMILES | displacement
O=C1NC(=O)N(c2ccccc2)C(=O)/C1=C\c1ccc(-c2ccc([N+](=O)[O-])cc2Cl)o1 | 11.5%
COc1ccc(/C=C2/SC(=S)N(CC(=O)O)C2=O)cc1Br | 5.1%
C=CCNC(=O)/C(=C\c1ccc2c(c1)OCO2)NC(=O)c1ccco1 | -1%
COc1ccc(N2C(=O)c3ccccc3C2(O)c2ncc[nH]2)cc1 (stereo not given) | 7.3%
COc1cc([N+](=O)[O-])ccc1NC(=S)NC(=O)/C=C/c1ccccc1 | 12.6%
CC(=O)NC(NC(C)=O)c1ccccc1 | 1.9%
O=C(NCC1CCCO1)c1sc2ccccc2c1Cl (stereo not given) | 7.2%
O=CN1CCN(c2nc(-c3ccccc3)c3cc(Cl)ccc3n2)CC1 | 113%
Cc1cccc(N2C(=O)NC(=O)/C(=C/c3ccc(-c4ccccc4[N+](=O)[O-])o3)C2=O)c1 | -15.1%
CS(=O)(=O)N(Cc1ccc(C(=O)NCc2ccc(Cl)cc2Cl)cc1)c1ccccc1 | 1.4%
COCCOC(=O)c1c(C)oc2ccc(OCc3cc(C)ccc3C)cc12 | 10.8%
Nn1c(NCc2ccccc2)nc2ccccc21 | -3.8%
Cc1ccc(C(=O)NCc2ccccc2)cc1S(=O)(=O)N1CCOCC1 | -6.6%
Cc1ccc(C)c(S(=O)(=O)Nc2ccc(OC(=O)c3ccc(Cl)cc3)cc2)c1 | 6.9%
CCOC(=O)c1c(NC(=O)CCc2ccccc2)sc2c1CCC2 | 3.4%
O=[N+]([O-])c1ccc(S(=O)(=O)NCCOc2ccccc2Cl)cc1 | 16.1%
CCSc1nc(-c2ccccc2)nc(C(Cl)Cl)n1 | -0.1%
O=C(COc1ccc2ccccc2c1)Nc1cc(Cl)cc(Cl)c1 | -8%
COC(=O)C1=C(C)N=c2s/c(=C\c3cc(OC)c(OC)cc3[N+](=O)[O-])c(=O)n2C1c1ccccc1 (stereo not given) | 38.4%
COc1ccccc1NC(=O)c1ccccc1C(F)(F)F | -5.7%
CC(C)(C)N1C(=O)NC(=O)C(=Cc2ccc([N+](=O)[O-])s2)C1=O | 8.3%
COc1cc(/C=C2\SC(=S)N(CCCCCCCCCCC(=O)O)C2=O)ccc1O | 5.1%

SMILES | displacement
c1ccc(Oc2cccc(CSc3nnnn3-c3ccccc3)c2)cc1 | 1%
O=C(CSc1ccccc1)Nc1nnc(CSc2ccccc2)s1 | -9.5%
O=C1c2ccccc2-n2c1cc(C=Nc1ccc(Cl)cc1)c2O | 112%
O=C(CCCOc1ccccc1)Nc1ccccc1 | -2.5%
COC(=O)CN(c1cccc(Br)c1)S(C)(=O)=O | 6.3%
COC(=O)c1ccc(NC(=O)CC2SCCNC2=O)cc1 (stereo not given) | -0.2%
O=C(/C=C/c1ccc(-c2ccc([N+](=O)[O-])cc2)o1)c1cc2ccccc2o1 | 190%
Cc1ccc(S(=O)(=O)N(C)c2ccc(Br)cc2C(=O)c2ccccc2)cc1 | 9%
C=CCOc1ccc(/C=C2\C(=O)NC(=O)N(C)C2=O)cc1Br | -49.3%
COc1cc(NC(=O)c2ccccc2[N+](=O)[O-])ccc1NC(=O)c1cc2ccccc2o1 | -0.3%
COCC(O)CN1CCN(c2ccc([N+](=O)[O-])cc2Cl)CC1 (stereo not given) | 14.8% and -1.4%
O=C(Cc1cccs1)Nc1cccc2c1C(=O)N(c1ccccc1)C2=O | 0.7%
C=CCN1C(=O)/C(=C\c2ccc(O)c(OCC)c2)C(=O)NC1=S | 9.2%
Cc1ccc(NC(=O)/C(=C/c2ccccc2)c2ccccc2)cc1C | 12.1%
O=Cc1ccccc1OCc1ccc(F)cc1 | -1.8%
CC1=NN(c2ccccc2)C(=O)/C1=C\c1ccc(C)o1 | -16.6%
COc1ccccc1NC(=S)NC(=O)c1ccc(Cl)cc1 | -6%
COC(=O)C1=C(C)N=c2s/c(=C/c3ccc(F)cc3)c(=O)n2C1c1ccc(OC)cc1 (stereo not given) | 5.7%
CCOc1cc(C(=O)N2CCN(c3ccc([N+](=O)[O-])cc3)CC2)cc(OCC)c1OCC | -3.4%
CCc1ccc(S(=O)(=O)N=Nc2c(O)n(CC)c3ccccc23)cc1 | -5.3%
C=CCn1c(-c2ccccc2)c(NC(=O)c2ccccc2)sc1=Nc1cccc(Cl)c1 | 1.7%
CS(=O)(=O)c1nnnn1-c1cccc2ccccc12 | 7.2%
